Test results taken from patent publication US20210386788A1, “ER TUNABLE PROTEIN REGULATION” (Obsidian Therapeutics, Inc., priority 2018, published 2021).

Tested on: T cells
Experiment: Membrane bound IL15-IL15Ra expression on transduced T cells (FACS, anti IL15 and anti IL15Ra)
Format: cell-based
Details: for % IL15-IL15Ra positive cells, 1 μM BZD: 1 μM BZD 24 hours; for % IL15-IL15Ra positive cells, DMSO: DMSO 24 hours
Experimental: T cells were activated with CD3/CD28 beads for 24 hours, transduced with lentivirus corresponding to OT-001727, using either 2 μl or 10 μl of virus. Cells were then expanded for 6 days. T cells were then treated with 1 μM BZD or DMSO for 24 hours.
Expression of membrane bound IL15-IL15Ra were analyzed by FACS using anti IL15 and anti IL15Ra antibodies and the percentage of cells that were positive for IL15 and IL15Ra cells was calculated (Table 17).

B1: OT-001727: ER DD regulated membrane bound IL15-IL15Ra construct (protein)
chain: MALPVTALLLPLALLLHAARPGSSLALSLTADQMVSALLDAEPPILYSEYDPTRPFSEASMMGLLTNLADRELVHMINWAKRVPGFVDLALHDQVHLLECAWMEILMIGLVWRSMEHPGKLLFAPNLLLDRNQGKCVEGGVEIFDMLLATSSRFRMMNLQGEEFVCLKSIILLNSGVYTFLSSTLKSLEEKDHIHRVLDKITDTLIHLMAKAGLTLQQQHQRLAQLLLILSHIRHMSSKRMEHLYSMKCKNVVPLSDLLLEMLDAHRLGS[in this place about 120 residues]SGGGSGGGGSGGGGSGGGGSGGGSLQITCPPPMSVEHADIWVKSYSLYSRERYICNSGFKRKAGTSSLTECVLNKATNVAHWTTPSLKCIRDPALVHQRPAPPSTVTTAGVTPQPESLSPSGKEPAASSPSSNNTAATTAAIVPGSQLMPSKSPSTGTTEISSHESSHGTPSQTTAKNWELTASASHQPPGVYPQGHSDTTVAISTSTVLLCGLSAVSLLACYLKSRQTPPLASVEMEAMEALPVTWGTSSRDEDLENCSHHL
Stabilization Ratio (2 μl virus): 4
% IL15-IL15Ra positive cells, 1 μM BZD (2 μl virus): 65%
% IL15-IL15Ra positive cells, DMSO (2 μl virus): 16%
Stabilization Ratio (10 μl virus): 3
% IL15-IL15Ra positive cells, 1 μM BZD (10 μl virus): 79%
% IL15-IL15Ra positive cells, DMSO (10 μl virus): 27%
ligand dependent expression of IL15-IL15Ra (in words) (BZD treatment versus DMSO): strong ligand dependent expression of IL15-IL15Ra
